# From PubChem BioAssay (NCI)
#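 Method: 48-hour compound exposure of cells in 96-well plates, five concentrations, linear interpolation of endpoints. GI50 = concentration required for 50% inhibition of growth. The concentration for full growth arrest is given as TGI.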
# System: NCI-H322M lung
# Assay: NCI tumour cell line growth inhibition, 48 h
SMILES,GI50 [µM],TGI [µM]
COc1cc(OC)c(/C=C/C(=O)c2c(OC)cccc2OC)c(OC)c1,2.02,> 100
Clc1nc(Cl)c2ncn(Cc3cccc(COc4cccc(OCc5cccc(Cn6cnc7c(Cl)nc(Cl)nc76)c5)c4)c3)c2n1,18.5,36.8
CN(C)c1ccc(N)cc1,5.02,36.6
Cc1[nH]c(=O)[nH]c(=O)c1/C=C/C(=O)NC(CO)CC(C)C (configuration not stated),–,> 375
COC(=O)C1C2OC(C)(C)OC2CN1S(=O)(=O)c1ccc(C)cc1 (configuration not stated),–,> 100
OC1=C2c3ccccc3NC2Oc2cc(F)ccc21 (configuration not stated),–,44.1
Cc1ccc(/C(=C/C=C(C#N)C#N)Sc2ccc(Cl)cc2)cc1,13.8,31.1
CC1=NN(c2cccc(S(=O)(=O)O)c2)C2(C1)C(Cl)C(=O)N2c1nc2ccccc2s1 (configuration not stated),–,26.6
CCOC1=NC(=O)CC(c2ccccc2)S1 (configuration not stated),–,> 100
CC[C@]12C=CCN3CC[C@@]4(c5cc(Br)c(OC)c([N+](=O)[O-])c5N(C)[C@H]4[C@@](O)(C(=O)OC)[C@@H]1OC(C)=O)[C@@H]32,–,> 100
Cc1nc(N)c(N2CCN(S(N)(=O)=O)CC2)c(=O)[nH]1,–,> 100
COc1ccc2c(c1)C=C([N+](=O)[O-])C(C1OC(C)(C)OC1C1COC(C)(C)O1)O2 (configuration not stated),–,27.5
CCOC(=O)C1(CO)CSCCSC1,–,> 100
COc1cc(C(=O)NNC(=O)c2cc(Br)ccc2NC(=O)c2cccs2)cc(OC)c1OC,–,> 100
Cc1cccc(NC(=O)C(=O)Cc2nc3ccccc3[nH]c2=O)c1C,–,> 100
Cc1ccc(N(C(=O)CC(=O)NN)C(=O)c2ccccc2Cl)cc1,–,> 100
O=C(Nc1ccc(Cl)cc1)c1cc(-c2ccc(F)cc2)c2sc(=O)[nH]c2n1,2.11,6.12
CC1=C(C)CC2(CCCCC2=O)S(=O)C1 (configuration not stated),–,> 100
O=C1NC(=O)c2ccc([N+](=O)[O-])c3cccc1c23,–,32.6
COC(=O)c1cccc2cccc(C(=O)Nc3ccc(C)cc3C)c12,–,> 100

SMILES,GI50 [µM],TGI [µM]
CC[C@@]1(O)C(=O)OCc2c1cc1n(c2=O)Cc2c-1nc1ccccc1c2/C=N\NC(=O)C[n+]1ccccc1,–,> 100
Cc1ccc(-c2c(C#N)c(-c3ccccc3)n(NS(=O)(=O)c3ccc(C)cc3)c(=O)c2C#N)cc1,–,> 100
CC(C)N(C(=O)C12CC3CC(CC(C3)C1)C2)C(C)C,–,> 50
O=C1C2=Cc3ccccc3CCN2c2ccccc21,–,> 100
CCOC(=O)/C=C/CC(C)(C)COC(C)=O,–,> 10
NCc1ccc(-c2ccc(CN)s2)s1,–,> 100
CC(=O)OCC1OC(NC(=S)Nn2c(=O)[nH]c3ccccc3c2=O)C(OC(C)=O)C(OC(C)=O)C1OC(C)=O (configuration not stated),–,> 100
CCCN(CCc1ccc(-c2ccccc2)cc1)CCc1ccc2n[nH]nc2c1,–,25.4
CC(=O)Nc1ccc(-c2nc3ccccc3s2)cc1Br,–,> 100
CCN(CC)c1sc(N(CC)CC)c2c1SSSSS2,2.09,4.15
C[C@]12CC[C@H]3[C@@H](CCC4=CC(=O)CC[C@@H]43)[C@@H]1CC[C@]2(O)C(N)=O,–,> 100
O=C1CSC(c2ccccc2)N1c1nc2cc3sc(N4C(=O)CSC4c4ccccc4)nc3cc2s1 (configuration not stated),–,> 100
COc1cccc(Nc2nc(C)c([N+](=O)[O-])c(Nc3cccc(OC)c3)n2)c1,–,> 100
CC[O-].CC[O-].O=C1c2ccccc2C(=O)c2c(O)ccc([O-])c21.O=C1c2ccccc2C(=O)c2c(O)ccc([O-])c21.[Ti+4],–,> 100
CC(=O)OC1C=C(C=O)C(O)(C=O)C2(C)CCCC(C)(C)C12 (configuration not stated),–,11.3
NC(=O)NC1NC(=O)NC1=O (configuration not stated),–,> 100
CN(C)CCOc1ccc(/C(=C(/CCCCCCCCCC[P+](c2ccccc2)(c2ccccc2)c2ccccc2)c2ccccc2)c2ccccc2)cc1,0.273,1.32
COc1ccc(C(C)c2cc3c(cc2OC)OCO3)cc1 (configuration not stated),–,> 97.2
COC(=O)C(=O)C(C(=O)C(=O)Nc1ccccc1C(N)=O)c1nc2ccc(Cl)cc2[nH]c1=O (configuration not stated),–,> 100
OCC1OC(NC(=S)NCCC(F)(F)C(F)(F)C(F)(F)C(F)(F)C(F)(F)C(F)(F)F)C(O)C(O)C1O (configuration not stated),–,> 100
